{"source": "PubChem BioAssay (NCI)", "system": "KM12 colon", "test": "NCI-60 one-dose screen, 48 h (100 = growth as untreated, 0 = no growth, -100 = all killed)", "note": "Some compounds were tested as several samples or in several runs, with calls that do not always agree.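 Single-dose data. Exposure time 48 hours. Values below 10 considered active.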 Some entries of the source have several records that differ or are many. Only these are listed. There may be further records. This drug was run again and again over the years, at its own concentration, as given; one value stands for one run. Additions like (4×) say how often a value occurs here.", "data": [{"molecule": "COc1cccc2c1C(=O)c1c(O)c3c(c(O)c1C2=O)C[C@@](O)(C(=O)CO)C[C@@H]3OC1CC(N)C(O)C(C)O1", "note": "(stereo partly specified)", "values": [{"measurement": "growth", "setting": "0.25 µM, runs of 2017", "value": "inactive: 66.5, 64.4, 57.2, 54.3, 51.9 (2×), 49.7 (2×), 47.1, 48.3, 55.5 (2×), 50.6, 50.5, 46.9, 45.8 (2×), 50.8, 49.6, 49.9, 46.4, 53.5, 60.5 (2×), 53.3, 52.5, 45.4, 48.1 (2×), 49.5 (2×), 58.2, 49.3, 61.2, 62.8 (2×), 50.1, 57.8, 58.5, 48, 53.9 (2×), 51.1, 56 (2×), 52.8, 55.1, 51.5, 56.2, 45.9, 53.2, 53.1, 55.6 (2×), 59.5, 56.5 (2×), 51.4, 56.8, 56.7, 54, 54.7, 52.2 (2×), 48.4, 47.8, 56.4, 58.8, 47.4, 48.8, 55.9, 56.1, 50.7, 52.4, 56.6 (2×), 48.9, 48.5, 50.3, 53.4, 57, 58.6, 55.4, 55, 54.1, 58.7, 56.9%"}, {"measurement": "growth", "setting": "0.25 µM, runs of 2018", "value": "inactive: 55.4, 57.8, 56.1 (3×), 59.7 (2×), 56.3 (2×), 54, 51.4, 53.8, 60.9 (2×), 60.7, 69.2, 66.6 (2×), 61.3, 57.7, 63.1, 64.3, 62, 60.8, 47.8, 64.4, 62.1, 57.6 (2×), 55.7, 56.2, 61.6, 52.1 (2×), 53.1, 62.2, 55 (2×), 59.5, 53.4, 61.7, 57.2, 49.8, 69.9, 58.5, 50.7, 64, 62.9, 66.9, 40.1, 47.4%"}, {"measurement": "growth", "setting": "0.25 µM, runs of 2019", "value": "inactive: 48.6, 39.1, 45.4, 36.3, 38.4, 47.6, 51, 47.1, 42.9, 44.1, 51.7, 45.9, 52.7, 57.3, 63.7, 51.9, 55.7, 49.1 (2×), 61.4, 56.5, 52.1 (2×), 46.2, 53.6, 53 (2×), 49.8, 37.9, 54.7, 46.1, 51.8, 45.7, 45.3, 47.8, 67.8, 57.4, 55.9, 55, 85.1, 56.9, 54.3, 60.7, 63.9 (2×), 61, 49, 52.5, 49.9%"}, {"measurement": "growth", "setting": "0.25 µM, runs of 2020", "value": "inactive: 38.7, 44.3, 58.1, 57, 67, 83.4, 60.3, 68.2, 57.3, 61.2, 58.5, 58.6, 58.7, 72.8, 64.4, 56.8, 59.6, 57.9 (2×), 60.8, 65.4, 63.5, 62.8, 64.5%"}, {"measurement": "growth", "setting": "0.25 µM, runs of 2021", "value": "inactive: 78.1, 82.3, 65.2, 70.8, 57.4 (2×), 58.8, 55.2 (2×), 74.7, 64.6, 62.4, 51.9, 56.9, 59, 67.6 (2×), 65.1, 66.1, 90.5, 68.4, 49.7, 49.5, 67.9, 57.8, 58.4, 65.7, 66.5, 57.9, 65.6, 60.9, 60.4, 61.4, 96.9, 53.6, 48.7 (2×), 55.3, 63.2, 63.6, 63.3, 67.8, 48.2 (2×), 50.6, 40.2, 57.5, 71.7, 62.1, 63.8, 65.8, 63.4, 62.7%"}, {"measurement": "growth", "setting": "0.25 µM, runs of 2022", "value": "inactive: 16.6, 18.8, 47.5, 52.2, 12.5, 55, 35, 48.9, 48, 56.6, 74.7, 61.9 (2×), 70.1, 53.6, 62.3, 50.3, 42.2, 86.2, 89, 91, 82.3, 87.6, 55.3, 58.5, 61.7%"}, {"measurement": "growth", "setting": "25 µM, runs of 1991", "value": "active: 0.911, 2.14, -17.3, -14.8, -19.5, -26.3, -5.25, -12.5, -1.84, 2.29, -20.8, -18.5, 8.16, -27.1, -18.4, -23.7, -24.1% and inactive: 10.8%"}, {"measurement": "growth", "setting": "25 µM, runs of 1992", "value": "active: 3.12, -0.318, 5.36, -0.888, -23.9, -7.37, -10.3, 0.297, -36, -52, 8.18 (2×), 7.02, 1.36, 3.41, -4.26, 5.31, -25.6, -19.2, -6.35, -27.6, -20.2, -45.2, 6.56, -24.9, 1.75, -7.3, -4.52, -45, -1.89, -28.5, -15 (2×), -19.8, -11, -2.91, -17.8, 0.402, 2.7 (2×), -21.9, -5.99, -14.7, 7.29, -37, 1.87, -25, -16.3, -7.38, -16.9, -29, -33.6, -7.14, -11.3, -10.2, -6.16, -23.3, -13.2 (2×), -18, -16.8, -0.82, -43.8, -30, -9.65, -35, -7.8, -13.9, -14.5, 1.12, 1.35, 1.21, -24.8, -23.2, -33, -23.8, -12.6, -34.3, -31.2, -10.5, -12.4 (2×), -40.6, -2.16, -22.6, -44.2, 5.04, -14, -31.3, -25.5, -50.9, -24.3, -19.5, 0.785, -35.1, -30.8, -3.85, -34.6, -14.1, 8.44, 4.66, -25.3, -21.5, -29.7, -32.2, -7.44, -22.8, -14.9% and inactive: 14.5%, 11.1%, 11.3%"}, {"measurement": "growth", "setting": "25 µM, runs of 1993", "value": "active: -1.96, -9.51, -24.2, -43.3, -3.15, -11.9, -26, -32.2, -7.11, -29.3, 2.28, -8.94, 0.895, -15.4, -25.7, -18.1, -18.4, 0.117, -0.784, -21.6, -30.3, -17.5, -36.1, -20.5, -11.4, -12.4, -14, 0.498, -33.5, -44.3, 0.73, -23.7, -64.7, -40.9, -39.1, -41.4, -21.9, -29.1 (2×), -13.2, -10.2, -32.3 (2×), -53.8, -10.5, -64.6, -35.5, -5.75, -62.3%"}, {"measurement": "growth", "setting": "25 µM, runs of 1994", "value": "active: -19.3 (2×), -1.54, -21.9, -37.1, -6.5, -25.9, -1.74, -39.5, -32.5, -12.5, -38.2, -23, 2.15, -21.2, 6.14, -28.1, -26.4, -16.5, -53.7, -14.6, -42.3, -36.3, 6.11, -12, -3.98, -4.19, -42.4, -17.2, -20.6, -19.6, -8.36, -9.42%"}, {"measurement": "growth", "setting": "25 µM, runs of 1995", "value": "active: -13.6, 4.39, -44.7, -8.65, -73.6, -24.3, -28.8, 1.9, -39.7, -21.8, -3.95, -20.7, -33.7, -14.6, -24.1, -20.6, -9.41, -35.9, -57.3, -60.6, -6.85, -38, -29, -46.1, -58.6, 1.58, -4.98, -29.9, -11.3, -19.3, 5.11, -51.7, 4.61, 0.811, -21.1, 2.97, -16.7, -22.8% and inactive: 16.2%"}, {"measurement": "growth", "setting": "25 µM, runs of 1996", "value": "active: -6.9, -14.8, -35.5, 5.72, -68.5, 4.79, -4.44, -35.2, -9.39, -19.8, -22.7, -4.14, -0.465, -2.94, 0.849, -21.7, 9.35, -5.03, -0.696, -24.4, -26.2, 0.151, 2.56, -72.9, 0.26, 1.73, -10.9, -20, -19.4, -57.2, -11.5, 1.41, -9.83, -10.2, -30.7, 1.75, -38.9, -5.83, -24.3, 0.956, -1.72, -27.7, -39.9, -6.6, 2.77, 3.48, -27.4, -18.7, -11.8, -39.2, -36.8, 3.86, 2.01, -60.8, -9.78% and inactive: 11.7%, 118%, 14.7%"}, {"measurement": "growth", "setting": "25 µM, runs of 1997", "value": "active: 5.35, 8.81, 0.545, -34.6, -9.38, -44 (2×), -46.3, -2.66, -26.2, -42.8, -16.4, 1.79, -73.9, -3.06, -26.7, -44.7, -44.4, -26.6, -18.2, -16.9, -10.5, -27.3, -7.6, -28.4, 7.91, 5.59, -22.9, -3.42, -29.7, 3.39, -32.5, -6.01, 2.64, -48.7, -38.4, -24.8, -29.6, -27.6, -10.9, -9.82, -8.33, -47.6, -31.3% and inactive: 98.5%"}, {"measurement": "growth", "setting": "25 µM, runs of 1998", "value": "active: 5.27, -18.1, -19.8, -5.45, 2.72, -45.1, -7.14, -25.6, -35, -58.4, -43.1, -14, -16.7, 0.0817, 1.02, -25.4, -14.1, 1.12, -6.53, -4.9, 0.558, -70.6, 7.03, 1.5, -13.9, -25.2, -10.1%"}, {"measurement": "growth", "setting": "25 µM, runs of 1999", "value": "active: -14.1, -4.6, 5.56, -40.5, -22.9, -70.4, 1.82, -73.1, 3, 0.354, -100, -46.5% and inactive: 28.4%"}, {"measurement": "growth", "setting": "25 µM, runs of 2000", "value": "active: 1.22, -100, 5.3, -39.1%"}]}]}
